# Results as given in the supplement of paper PMC12217912.
# This is one part of the list. Sequences were assembled here from the parent chain. Inactive controls read about 0.05.
# B1: TEV protease; numbered along this chain (parent)
# chain: MGESLFKGPRDYNPISSSICHLTNESDGHTTSLYGIGFGPFIITNKHLFRRNNGTLVVQSLHGVFKVKDTTTLQQHLVDGRDMIIIRMPKDFPPFPQKLKFREPQREERICLVTTNFQTKSMSSMVSDTSCTFPSGDGIFWKHWIQTKDGQCGSPLVSTRDGFIVGIHSASNFTNTNNYFTSVPKNFMELLTNQEAQQWVSGWRLNADSVLWGGHKVFMVKPEEPFQPVKEATQL
# Variants of: B1
# Assay: raw area under fraction-flipped curve 0-4 h after induction (AUC4h, not background-subtracted), DNA-recorder readout of cleavage of the substrate (dimensionless); higher = more cleavage of the substrate by the protease variant
# Conditions: temperature: 34 °C; time window: 0-4 h after rhamnose induction
# 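Further: Bxb1 expression induced with 0.2% (w/v) L-rhamnose at OD600 near 0.5, cultures sampled hourly, flipped fraction per protease–substrate barcode pair counted by paired-end Illumina sequencing.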
Variant,area with substrate ENLYFQC,area with substrate ENLYFQG,area with substrate ENLYFQK,area with substrate ENLYFQS,area with substrate ENLYFQV,area with substrate ENLYFQI,area with substrate ENLYFQL,area with substrate ENLYFQN,area with substrate ENLYFQR,area with substrate ENLYFQE
Q74P,0.14,0.0861,0.0597,0.105,0.0712,–,–,–,–,–
L77R,0.0705,0.0668,–,0.0693,–,0.0565,0.059,0.057,0.0594,–
D79E,0.07,0.0991,–,0.102,–,–,0.084,–,–,0.0693
G80L,0.09,–,0.0461,0.106,0.0586,–,0.0633,0.103,0.0595,–
R81A,0.086,–,0.062,0.0984,0.0666,0.063,0.0606,–,0.062,–
D82V,0.0487,0.0732,–,0.0525,–,–,–,0.0512,–,–
M83E,0.0583,0.0405,–,0.0557,0.0632,0.061,0.0527,–,0.0614,–
M83L,0.0736,–,–,0.0959,–,0.0617,0.0468,0.0736,0.0753,–
I84V,0.123,0.132,0.067,0.11,0.0437,0.054,0.0467,0.0791,0.0459,–
R87T,0.0784,0.0643,–,0.0758,0.0611,0.0562,0.0655,–,0.0384,–
D91T,0.0794,–,–,0.0992,–,0.0642,–,–,–,–
F92V,0.0968,0.0647,–,0.0945,0.0491,0.0652,–,0.0789,0.0604,–
P93D,0.103,0.0796,–,0.101,–,0.0573,0.0636,0.0764,0.0564,–
P93L,0.144,–,–,0.115,–,–,0.0285,0.0818,0.0585,–
P93W,0.0852,–,–,0.0936,–,–,–,–,–,–
P94N,0.133,–,–,0.103,0.0771,0.0404,0.058,0.0702,0.0656,0.0471
Q97W,0.119,0.104,0.0591,0.0975,0.0732,0.0537,–,–,–,–
K98R,0.12,–,0.0677,0.106,0.0542,0.0568,0.0535,–,0.0571,0.068

Variant,area with substrate ENLYFQC,area with substrate ENLYFQG,area with substrate ENLYFQK,area with substrate ENLYFQS,area with substrate ENLYFQV,area with substrate ENLYFQI,area with substrate ENLYFQL,area with substrate ENLYFQN,area with substrate ENLYFQR,area with substrate ENLYFQE
L99E,0.0986,0.149,0.0765,0.0763,–,0.0367,–,–,0.0542,–
L99K,0.0804,–,0.0563,0.0766,–,–,–,–,–,–
L99V,0.0974,–,–,0.0954,–,0.0545,0.0643,–,0.0622,–
K100D,0.138,–,–,0.102,–,–,–,0.074,0.0656,–
E103D,0.108,–,–,0.106,–,–,0.0729,0.0728,0.0656,–
E103M,0.117,0.0825,0.0445,0.0971,0.055,0.06,0.0518,0.0737,0.0643,–
E108G,0.0893,–,–,0.0765,–,0.0471,–,–,0.0424,–
R109T,0.0995,0.0912,0.0588,0.103,0.0551,–,–,0.0757,–,–
T115K,0.103,–,0.0648,0.107,–,0.0585,0.0668,0.0863,0.0693,–
N116V,0.128,–,–,0.101,–,–,–,–,0.0572,0.089
N116W,0.103,–,–,0.095,0.0694,–,0.0609,0.0805,0.051,–
F117P,0.0829,–,0.0858,0.0964,0.0608,0.0614,–,–,0.0521,–
Q118W,0.114,–,0.0519,0.104,–,0.0776,–,–,–,0.057
T119G,0.111,0.116,–,0.105,–,–,–,–,–,–
S121F,0.114,–,–,0.1,0.0514,0.0737,0.055,0.0745,–,–
S124C,0.107,0.0925,0.0601,0.1,0.0576,0.0615,0.0223,0.108,0.0532,–
S124Y,0.0646,0.0739,0.0767,0.0919,0.0536,0.0716,0.0586,–,0.0737,–

# Same assay, conditions: temperature: 34 °C; time window: 0-4 h after rhamnose induction
Variant,area with substrate ENLYFQP,area with substrate ENLYFQT,area with substrate ENLYFQW,area with substrate ENLYFQY,area with substrate ENLYFQH,area with substrate ENLYFQF,area with substrate ENLYFQD,area with substrate ENLYFQM,area with substrate ENLYFQQ
D79E,0.0598,0.0705,0.0449,0.114,–,–,–,–,–
G80L,0.103,–,–,–,0.0711,–,–,–,–
R81A,–,0.0757,0.0609,0.0787,0.0795,0.0643,–,–,–
D82V,0.0644,–,0.0453,–,–,–,–,–,–
M83E,–,–,0.0464,0.0607,–,–,0.0726,0.054,–
M83L,–,0.0398,0.0621,–,–,–,0.0828,0.0933,–
I84V,–,0.0614,–,0.0735,–,0.0956,0.0752,0.126,0.0505
R87T,–,0.0517,0.0535,0.0563,–,–,0.06,–,–
D91T,0.059,0.0472,0.0879,–,–,–,–,0.0794,–
F92V,–,–,0.0676,–,0.0809,0.0683,–,0.101,0.0626
P93D,–,–,0.0827,–,–,0.0658,–,0.0913,0.0726
P93L,–,0.0712,–,–,–,0.0487,–,0.107,–
P93W,–,–,–,–,–,0.0958,–,–,–
P94N,0.0381,–,–,–,–,0.0743,–,–,–
Q97W,–,–,–,0.072,–,0.0779,–,–,–
K98R,0.0801,0.0664,0.0805,–,–,–,–,0.0733,–
L99E,0.0533,–,–,0.0601,–,–,–,0.0617,–

Variant,area with substrate ENLYFQP,area with substrate ENLYFQT,area with substrate ENLYFQW,area with substrate ENLYFQY,area with substrate ENLYFQH,area with substrate ENLYFQF,area with substrate ENLYFQD,area with substrate ENLYFQM,area with substrate ENLYFQQ
L99K,–,–,–,–,–,–,–,–,0.0533
L99V,–,0.0576,0.0637,0.109,0.113,–,–,0.0821,0.0734
K100D,–,–,0.0716,0.0665,–,0.072,–,0.102,0.0664
E103D,0.0562,0.0595,0.0502,0.0644,0.0916,–,0.0696,0.0858,–
E103M,–,0.0666,0.066,0.0767,0.0603,0.0709,0.0805,0.0792,–
E108G,–,0.0598,0.0291,–,–,–,–,0.0569,–
R109T,0.0509,0.0702,0.061,0.0762,0.0911,0.0799,–,–,–
T115K,0.0621,0.059,–,–,0.0926,–,–,0.0848,–
N116V,–,–,0.0731,0.0744,0.0722,0.0665,–,0.0755,–
N116W,–,0.0948,–,0.0671,–,–,0.0823,–,0.0742
F117P,–,0.0643,0.0562,–,–,–,0.0697,0.083,–
Q118W,–,0.0623,0.0851,0.0827,–,–,–,0.0837,–
T119G,–,–,–,–,0.091,–,0.0756,–,–
S121F,0.081,–,–,–,–,–,–,0.0924,0.0439
S124C,0.0582,0.0938,0.0521,–,–,–,–,0.1,–
S124Y,–,0.0877,0.0678,–,–,0.0843,–,–,–
